Reference: the supplement of paper PMC3334620
Over roughly 33,000 sequences, “E-score (-0.5 to 0.5)” has its median near -0.01; the highest 2% begin near 0.26. Some of the results follow.

What follows are sequences tested against Ste12 (UniProt P13574) (assay: PBM E-score (8-mer binding enrichment) (E-score (-0.5 to 0.5)); higher = stronger / more preferred TF binding; most listed sequences are background and not binding sites). Conditions: protein concentration: 200 nM; construct: GST-DNA-binding domain.
Method in brief: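 Yeast transcription factors, full-length or as DNA-binding domains, were expressed with a GST tag using PURExpress in vitro transcription/translation. At about 100-200 nM they were applied to universal all-10-mer Agilent arrays, double-stranded by primer extension on fresh or once-stripped slides. Fluorescent anti-GST detected bound protein, and masliner normalised the scans. E-scores for ungapped eight-base words, pooled with reverse complements, came from the Universal PBM Analysis Suite.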

Sequence | PBM E-score
AATCGACT | -0.108
CAATAGCC | -0.0829
CTAGGAGC | -0.17
CAAAGAGG | -0.135
GATTCATA | 0.00383
ACAATGCT | -0.122
CTGACACC | -0.0815
ACGGACCA | -0.109
ACATAGAG | -0.0386
CAGGAAGA | 0.0542
ACGTCTGA | -0.144
CGTGCCTC | -0.174
GAACTGAA | 0.221
GCACTTAC | -0.118
TAAGGACA | 0.0544
AGTCCGGC | -0.0592
ATCATATA | 0.15
CCACAATC | -0.0492
CTCCTATA | -0.217
GTGCTAAC | -0.0233
AATTTACC | 0.137
CTCCCGTA | -0.224
AGCCGAAA | 0.15
CGCTGACA | 0.0883
GGCTTGCA | -0.00181

Sequence | PBM E-score
TGGATTAA | 0.123
CTAGTCAC | -0.108
CCGGGCTA | -0.208
GTAAGCAC | -0.0603
TACAAGAA | 0.187
AACGGTAA | -0.0226
ACTCCCGA | -0.281
GTAGGGTA | -0.158
GAAAGAAA | 0.297
GCTACTGA | 0.0417
CAGTGACC | -0.11
CCTGCAAA | -0.194
AGCTATCA | -0.0659
GTCCAGAC | -0.298
AGCAACAC | -0.0966
GGTCCACC | -0.217
CAGGGTAG | -0.114
AGTCTACG | -0.171
CCGCACAA | -0.00756
ATGCACCG | -0.132
AAAGAATT | 0.15
CTCGAATA | -0.0948
GAGTTGCA | -0.152
CTAAGGCA | 0.061
ACACGCGC | 0.0321

Sequence | PBM E-score
AATCGTAG | -0.0731
CGTCCCAC | 0.159
AGATTTAA | 0.0444
AAGGTAGA | 0.0315
ATACGTGC | 0.0112
AACTACCC | 0.033
CACAGGTG | -0.128
CTGCCCAA | -0.0559
GTTGACAA | 0.132
CGCTTCCC | 0.00746
TAGTAGCA | 0.119
AAAATCTG | 0.193
AAAGCACC | -0.00596
ATCTGTGA | -0.044
CGTATGAG | 0.0322
ATCTCCAG | 0.0508
GTGGCTCA | -0.205
CAACCATG | 0.0467
AGCTTGAG | -0.164
CCGCGGCA | 0.175
GGTTCCTA | -0.177
ACAAGAGG | -0.0964
CAAGTCAA | -0.117
ACAGTCCA | -0.0442
TAATGCTA | -0.00558

Sequence | PBM E-score
GATGGGCA | -0.0542
CATCGATC | -0.149
CAGACGCA | 0.0344
CGGTAACG | -0.141
GGCGAGCC | -0.206
CGGCCTAA | 0.0279
CTAGCGAA | -0.222
AGATGAAA | 0.39
CGCCCCGA | 0.247
AGGTTAAG | -0.0346
CCCCAACA | -0.0382
CCTGAAGG | -0.184
GCACAAAC | -0.0245
GATGGGAA | 0.0192
CAGGCCTA | -0.0237
CCTCAGAA | 0.0556
CACTGATA | 0.092
ACCTACGA | -0.0389
CCAGTCGC | -0.1
AGTGCCGC | -0.0644
ATCGATGA | 0.0661
CCTCTCCC | 0.0198
AGAGTTCG | 0.0764
GTGACGTA | 0.00924
AGTTCCAG | 0.115

Sequence | PBM E-score
CGTAAGGA | -0.0644
AATTCAAG | 0.0152
ACTTGGGA | -0.137
GCTCAAAA | 0.159
CTCTATCC | -0.0963
CTTGCTCC | -0.112
GTCGACTA | -0.0061
GGTTCTAC | -0.0498
ATACCACC | 0.0538
CATGCTAG | -0.12
CATATGTC | -0.184
ATAAGATG | 0.224
GTATTAGA | 0.22
GCGGAGCC | -0.102
GGCTCACC | -0.244
TGCAACAA | 0.052
ATCGGGCA | -0.0312
TCAAACCA | 0.278
ACCAGCAG | -0.0588
CACTCTAC | 0.0303
CGGTGGTC | 0.00929
ACATTCAT | 0.117
AGCCAGGA | -0.0688
CGTAGTCC | -0.317
AAGGTGCA | 0.02

Sequence | PBM E-score
CTTGTGAA | 0.00063
AACGTCAA | -0.0262
AATATGGT | 0.165
ATAGGACC | -0.0552
AAACGCCA | 0.229
CTCAAGTC | -0.264
AACGGGGC | 0.0743
CCCTTATA | -0.0231
AAGGAAAG | -0.0602
CATGCTGC | -0.155
CTGATAGA | 0.156
ATTTTCTC | 0.0613
AGTAGCCA | -0.212
AGATTCGA | 0.169
AAAGACCT | 0.137
GATTGATA | 0.112
GGCATGCC | 0.0656
CTCATGCA | -0.0573
TTATTAAA | 0.321
GTGAAGCA | -0.135
GCCAAAGA | -0.0779
AGAGCGGC | -0.0499
ATATGATC | 0.162
ATTGCCAA | 0.0958
CATAGGGC | 0.0363

Sequence | PBM E-score
GACGGGTA | -0.203
ACAGGCAA | -0.0909
CATTCAGG | -0.0953
AATGTGGA | 0.0541
GTAGACAC | -0.173
CAAGAGCG | 0.102
ACCGATGC | -0.0639
ATGACTAA | 0.1
CCTGGGGA | -0.15
CGGTGTGA | 0.105
GAATGCGC | -0.0698
CAGGGACC | -0.285
CGTCGTTC | 0.128
ACCAACCA | -0.026
ACAGGGAT | 0.0276
ATCGAAGC | 0.0146
CATGCGAG | -0.0124
GCTGAGCC | -0.0937
AGCTTCAG | -0.121
AAGAAAGG | 0.0192
AGAAAATG | 0.00032
GGTTGACA | 0.0819
ACATAACT | 0.203
CACACCGA | 0.0546
CAGGTAAA | 0.248

Sequence | PBM E-score
CCACCAAA | 0.208
ACCGTATG | -0.219
ACCAAGAT | -0.0289
AGTGAAGG | 0.0289
ACTCGGCG | 0.0508
CTTGCTAA | -0.141
CCATCTAG | -0.115
CGTTTACA | -0.129
GATACTGA | 0.0615
GCTGCTAC | -0.192
CCCATTAC | -0.0724
GGGCCGAC | -0.0218
CCGGGGCA | -0.0708
CCATTCAC | 0.0416
AAAACCCT | 0.213
CATGAGAA | 0.18
CCTGGGTA | -0.0661
CTTCCGTC | -0.0523
AGCCCCAT | -0.00504
CCATGGGA | 0.0303
GGATTACC | -0.0225
TGTGACAA | 0.246
GATAGGAA | -0.0153
ACTTCAGC | -0.18
CTGCAATA | 0.0764

Sequence | PBM E-score
GAGATACA | 0.198
AGGATCAG | -0.016
TTCCAGAA | 0.144
CTTACCCA | -0.0004
GACACGGA | -0.104
CCAATACG | -0.0466
AAGAAATT | 0.149
GACCTACA | -0.161
AGAACGCT | -0.199
AAGCGTGG | -0.0252
CAGCGGGG | -0.0923
GATACAAA | 0.134
AAAGACGT | -0.0117
CATGGTAG | -0.0843
CGTATCAC | 0.113
CATTGTAC | -0.18
AAAACGGA | 0.273
ATCCTAAG | -0.0279
GTTTCCTA | -0.0316
ACAGCAAC | 0.0197
AAGCATAG | -0.152
ACAGTTGG | -0.0275
AATGTTTG | 0.0124
GATGGAAC | -0.0989
GCCTAGTA | -0.0783

Sequence | PBM E-score
AGAGTTAC | -0.193
CATTATAA | 0.12
GCAAATAC | 0.0478
AATGCTCT | -0.0497
CCCTCCTA | 0.156
ATATCGAG | 0.064
ACGAAGCA | 0.0643
GACTGAGC | -0.284
CATCATAC | 0.118
ATTATCGA | -0.00808
GGGGTCGA | -0.00594
TGCTCAAA | 0.0472
CCGCGGTA | 0.178
CAACGAGA | 0.0833
GCTCTTAC | -0.0495
CTGGCATA | 0.0265
TCTAGTCA | -0.153
CACCACGC | -0.241
CAACGAGG | -0.114
CATAAGCC | 0.0084
GAGGGTCA | -0.0263
GTACATGA | -0.0043
CAGCCAGA | -0.165
GAAAGCTC | -0.201
AAAAGAGT | 0.058

Sequence | PBM E-score
AGAGAGGC | -0.312
CGTATGCA | 0.0308
CCCATACG | -0.123
CAATATTG | -0.18
AGATTCAA | 0.0763
AATTGTCA | 0.235
CGGGGCCC | 0.0497
TAGACAGA | -0.06
ACCGATTG | 0.0921
AACATGCT | -0.0636
GTAACGAA | 0.135
GTTCACAA | 0.0531
CCTTAGAA | -0.0361
AAAATGCC | 0.0197
CTTGATCC | 0.0759
AAATGGTA | 0.184
AACCCGTA | -0.155
CTGAGCGC | -0.157
AAGGAGTC | -0.224
CTAGCATA | -0.126
GATAACTA | 0.0607
ATGGTTCA | 0.177
CGGAAGGA | -0.0524
ACTGATAC | 0.038
ATTGACAC | 0.0216

Sequence | PBM E-score
AAATCTGC | 0.0398
GCTCGCCC | 0.0417
GAAGAGGC | -0.00355
ATCCAACC | -0.0776
AGCGTAGG | -0.118
GCGGTCCA | -0.265
GAGGTCAA | -0.0364
AAACCGGT | 0.0579
CCGGTTCA | -0.122
CGTCCGGC | -0.0102
AGACGGCT | -0.178
GCCGGGTA | -0.0426
ACACTTGC | 0.0744
GTATAACA | 0.0311
GGCGTGAC | 0.00226
GATGCCGA | 0.12
GCTGGAGA | -0.152
AACATCCT | 0.102
CGAGCTAA | 0.00573
AGGCCTAT | -0.225
GCTAATGA | 0.0764
GATGCAAA | 0.0604
GCTGAGAC | 0.209
ACATAAGC | -0.0117
GTGCACCA | -0.1

Sequence | PBM E-score
CCATGATA | 0.153
AGAGACCT | -0.107
ATACTCAG | 0.086
ATGGTCGC | 0.0953
CATTGGCC | -0.212
GGATATAA | 0.195
CCTACCCA | 0.0661
GCTAGGAC | -0.165
TCCCTCAA | -0.116
ACGTGTCG | -0.0544
GATTCGGA | 0.134
TGTTAACA | -0.00171
ACTTTTAG | 0.101
CATCTAGA | -0.0143
AGGTCGTC | -0.0589
AATCACAT | -0.0806
AAGTACTT | 0.0324
CAGATAGC | -0.131
GGCCGGGA | -0.0864
TACGTCTA | -0.0447
GGTTCTTA | 0.139
AGATCACT | 0.0283
GCTGCGAA | 0.06
CGACACAA | 0.0706
ACACAGCC | 0.0129

Sequence | PBM E-score
CAGTTGAG | -0.132
GCCTCGGA | -0.0162
ACACACAT | 0.155
GACTCTCA | -0.0399
GAGAGCAC | -0.108
GACAGTAC | -0.101
CGAGAACC | 0.0434
CCCCTAGG | -0.254
CTAAGAGA | -0.059
GTATGGTA | 0.0197
TATAGTCA | -0.0254
CCAGACTC | -0.278
AAGCTGAG | -0.135
GCTAGATA | -0.133
GACACGCA | -0.0396
ACTAAAAG | 0.1
AAGTTACG | 0.0247
GCAGAAAC | 0.108
AGATCGCG | -0.154
